Here are results for 86 compounds from publication PMC4336329 (PLoS ONE, 2015).

Hit rate of the full screen: of about 310,000 compounds, about 2,200 (0.71%) showed an effect of 50% or more. The effect is printed as a negative number. Some of the results follow.

This assay deals with human ether-à-go-go-related gene (hERG) potassium channel (human, UniProt Q12809). In words: primary screen, population patch clamp on CHO cells stably expressing hERG.
Chain of human ether-à-go-go-related gene (hERG) potassium channel (Q12809 whole entry, looked up): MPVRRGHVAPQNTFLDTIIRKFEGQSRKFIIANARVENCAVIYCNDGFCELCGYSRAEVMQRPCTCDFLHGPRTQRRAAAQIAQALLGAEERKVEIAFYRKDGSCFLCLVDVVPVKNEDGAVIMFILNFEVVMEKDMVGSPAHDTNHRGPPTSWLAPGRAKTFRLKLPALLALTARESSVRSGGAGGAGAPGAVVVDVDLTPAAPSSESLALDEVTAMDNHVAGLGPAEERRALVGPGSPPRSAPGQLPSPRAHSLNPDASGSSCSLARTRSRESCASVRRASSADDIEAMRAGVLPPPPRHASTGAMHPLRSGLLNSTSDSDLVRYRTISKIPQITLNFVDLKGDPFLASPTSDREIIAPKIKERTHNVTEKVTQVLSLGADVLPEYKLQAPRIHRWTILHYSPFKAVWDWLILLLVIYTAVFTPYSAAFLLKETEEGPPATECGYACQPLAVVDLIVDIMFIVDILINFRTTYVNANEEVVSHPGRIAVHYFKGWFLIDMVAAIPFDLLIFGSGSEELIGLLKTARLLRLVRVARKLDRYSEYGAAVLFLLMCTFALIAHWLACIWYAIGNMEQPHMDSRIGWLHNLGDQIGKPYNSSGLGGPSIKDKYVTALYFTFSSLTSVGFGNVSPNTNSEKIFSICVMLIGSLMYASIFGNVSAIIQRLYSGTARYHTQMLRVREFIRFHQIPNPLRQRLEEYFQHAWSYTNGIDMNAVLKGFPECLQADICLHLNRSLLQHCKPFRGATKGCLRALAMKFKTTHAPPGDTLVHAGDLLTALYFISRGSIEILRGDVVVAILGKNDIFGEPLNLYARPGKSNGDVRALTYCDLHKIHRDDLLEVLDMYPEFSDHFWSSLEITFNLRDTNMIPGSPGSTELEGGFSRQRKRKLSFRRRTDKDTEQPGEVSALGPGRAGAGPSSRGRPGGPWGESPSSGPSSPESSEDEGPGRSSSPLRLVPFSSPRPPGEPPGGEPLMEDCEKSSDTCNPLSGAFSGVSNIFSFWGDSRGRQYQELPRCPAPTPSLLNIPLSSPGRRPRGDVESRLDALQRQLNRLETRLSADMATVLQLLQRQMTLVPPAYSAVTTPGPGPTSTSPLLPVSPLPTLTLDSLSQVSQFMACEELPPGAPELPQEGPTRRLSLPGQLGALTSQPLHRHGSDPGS
Consider `C/C(=N/NC(=O)c1ccc(Br)o1)c1ccc(C)o1`, for which the “hERG current change (%, negative = inhibition) at 1uM” value is 0.861%.

Take `O=C(NCc1cccnc1)C(=O)Nc1ccc([N+](=O)[O-])cc1`: the “hERG current change (%, negative = inhibition) at 1uM” value was determined as 2.54%. The figure for `O=C(OC(C(=O)NCc1cccs1)c1ccc(F)cc1)c1ccco1` (centres unmarked) is 12.4%; for `CC(C)C(=O)C1=Cc2cccc([N+](=O)[O-])c2OC1N1CCOCC1` (centres unmarked) it is 5.69%; for `Cc1nn(CC(=O)N/N=C/c2cccs2)c(C)c1[N+](=O)[O-]` it is 10.4%. The figure for `CC(C(=O)Nc1cccc(S(=O)(=O)N2CCOCC2)c1)N1CCN(c2ccc(F)cc2)CC1` (centres unmarked) is 4.54%; for `CCCN1CCN(CCCNC(=O)c2cc3c(=O)oc4ccc(C)cc4c3s2)CC1` it is 5.67%; for `O=C(CCc1ccccc1)NNC(=O)c1ccccc1C(=O)O` it is 8.54%. Consider `CCN(CC)C(=O)CSc1nnc([C@H](Cc2c[nH]c3ccccc23)NC(=O)OC(C)(C)C)o1`, for which the “hERG current change (%, negative = inhibition) at 1uM” value was -14.7%.

Take `O=C(Cc1ccc(F)cc1)OCC(=O)N1CCN(S(=O)(=O)c2ccc(Cl)cc2)CC1`: the “hERG current change (%, negative = inhibition) at 1uM” value was -1.45%. For `O=S(=O)(c1ccc(Cl)cc1)N1CCCC1c1nc2ccccc2s1` (centres unmarked), the “hERG current change (%, negative = inhibition) at 1uM” value is listed as -4.67%. As for `COc1ccccc1NC(=O)Cn1c(O)c(N=NC(=O)c2ccccc2O)c2ccccc21`, the “hERG current change (%, negative = inhibition) at 1uM” value turned out to be 13.3%.

In the case of `CCOC(=O)c1sc(NC(=O)CN(CC(C)C)CC(C)C)c(C(=O)OCC)c1C`, the “hERG current change (%, negative = inhibition) at 1uM” value was -6.54%. Take `O=C(NCCN1CCCCC1)Nc1ccccc1`: the “hERG current change (%, negative = inhibition) at 1uM” value is on record as -2.18%.

Regarding `O=C(Cn1cc(C(F)(F)F)ccc1=O)NCC1CCCO1` (centres unmarked), the “hERG current change (%, negative = inhibition) at 1uM” value worked out at 15.8%. For the compound `Cc1ccc(C(=O)NCc2ccco2)cc1S(=O)(=O)N1CCCCC1`, the “hERG current change (%, negative = inhibition) at 1uM” value is on record as 7.4%. On to `O=C(NCC(c1cccnc1)N1CCN(c2ccc(F)cc2)CC1)OCc1ccccc1` (centres unmarked), for which the “hERG current change (%, negative = inhibition) at 1uM” value is -10.1%. The figure for `Cl.O=C(c1ccc(Cl)c(S(=O)(=O)N2CCCCCC2)c1)N1CCN(CCO)CC1` is -7.38%. For `CC1CCCCC1NC(=O)C1CCN(S(=O)(=O)c2ccc(-n3cnnn3)cc2)CC1` (centres unmarked), the “hERG current change (%, negative = inhibition) at 1uM” value stood at 5.61%. The figure for `CC1(C)Cc2c(cnn2-c2ccc(F)cc2)C(NC(=O)c2cnccn2)C1` (centres unmarked) is -6.77%. With `C=CCNC(=O)C(=O)Nc1cc2c3c(c1)CCC(=O)N3CCC2`, the “hERG current change (%, negative = inhibition) at 1uM” value is reported as -14.9%. Take `Cn1c(CNC(=O)OC(C)(C)C)n[nH]c1=S`: the “hERG current change (%, negative = inhibition) at 1uM” value was -1.39%.

For `Nc1c(-c2cccc(Cl)c2)cnn1-c1cccc([N+](=O)[O-])c1`, the “hERG current change (%, negative = inhibition) at 1uM” value is given as -25%.

As for `COc1ccc(-n2nnc3c(=O)n(CC(=O)NCC4CCCO4)cnc32)cc1` (centres unmarked), the “hERG current change (%, negative = inhibition) at 1uM” value is reported as 6.12%. The figure for `Cc1cc(C)c2[nH]c(=O)c(=O)[nH]c2c1` is 8.64%; for `CCN(CC)S(=O)(=O)c1ccc(N2CCOCC2)c(NC(=O)COc2ccc(C#N)cc2)c1` it is 5.39%. `Cc1ccc(S(=O)(=O)N2CCN(C(=O)c3ccc(S(=O)(=O)N4CCCC4)cc3)CC2)cc1`: the “hERG current change (%, negative = inhibition) at 1uM” value was 7.22%. As for `Fc1ccccc1-c1csc(-c2cccnc2)n1`, the “hERG current change (%, negative = inhibition) at 1uM” value was determined as 10.4%. The figure for `COc1cc(-c2cc(C(=O)NCCc3ccc(S(N)(=O)=O)cc3)c3ccccc3n2)cc(OC)c1OC` is 8.14%; for `COc1ccccc1-n1c(SCC(=O)O)nnc1-c1ccc(S(=O)(=O)N2CCCCC2)cc1` it is -3.86%. The figure for `COCCCNC(=S)NNC(=O)c1ccccc1Br` is 11.3%. The figure for `CC(C)(C)n1nnnc1C(c1cccs1)N1CCN(Cc2ccccc2)CC1.Cl` (centres unmarked) is -0.642%; for `COc1cccc(-c2cc3nc(-c4ccccc4)cc(N4CCC5(CC4)OCCO5)n3n2)c1` it is 10.2%; for `Cc1cccc(C(=O)Nc2cccc(OC(=O)c3cccc(C)c3)c2)c1` it is 12%. As for `COc1ccc(C2CC(c3ccc4ccccc4c3)=NN2C(=O)CN2CCC(C(N)=O)CC2)cc1` (centres unmarked), the “hERG current change (%, negative = inhibition) at 1uM” value was found to be 6.63%. The figure for `CCCNC(=O)c1cc(S(=O)(=O)N2CCc3ccccc32)cn1C` is 11.8%; for `CC(=O)c1csc(Nc2ccccc2Cl)n1` it is 12.9%. The figure for `CCC(C)C(=O)Nc1cc(Cl)ccc1C(=O)O` (centres unmarked) is 12.9%; for `CCCCN(C(=O)CSc1cc(C)c2ccccc2n1)c1c(N)n(Cc2ccccc2)c(=O)[nH]c1=O` it is 9.11%. Turning to `CC1CCC2(CC1)NC(=O)N(CC(=O)N1CCN(S(=O)(=O)c3ccc4c(c3)CCC4)CC1)C2=O` (centres unmarked), the “hERG current change (%, negative = inhibition) at 1uM” value is listed as 7.9%. The figure for `COc1cc(CC(=O)OCC(=O)c2c[nH]c3ccccc23)cc(OC)c1OC` is 2.96%; for `C/C(=N/NS(=O)(=O)c1ccc(CC(C)C)cc1)c1ccncc1` it is 11%; for `COc1ccccc1NC(=O)Nc1nnc(Cc2ccccc2F)s1` it is 17.3%. The figure for `O=C(CCNC(=O)c1ccccc1Cl)Nc1ccc(Cl)c(C(F)(F)F)c1` is 11.8%. With `COc1ccc(CC(=O)NCc2n[nH]c(=S)n2-c2ccc(F)cc2)cc1`, the “hERG current change (%, negative = inhibition) at 1uM” value came out at 23.3%. The figure for `O=C(O)C(=O)O.O=C(c1cccnc1)N1CCN(Cc2ccc3ccccc3c2)CC1` is -8.13%.

As to `Fc1cccc(NC(=S)NCCCN2CCOCC2)c1`, the “hERG current change (%, negative = inhibition) at 1uM” value is -14.8%. The figure for `COc1ccc2c3c(cccc13)C(=O)N(O)C2=O` is 0.0209%. Consider `O=C(NC1CCCC1)C1CCN(C(=O)Nc2cccc(Cl)c2)CC1`, for which the “hERG current change (%, negative = inhibition) at 1uM” value stood at 15.5%.

Regarding `CC1(C)CN(O)CCN1O`, the “hERG current change (%, negative = inhibition) at 1uM” value was 6.68%. The figure for `Cc1nc2cc(NS(=O)(=O)c3cccc4cccnc34)ccc2s1` is 15.3%; for `CS(=O)(=O)c1ccc(Cl)c(NC(=O)COC(=O)CCc2c[nH]c3ccccc23)c1` it is -12.3%. The figure for `Cn1nc(-c2ccccc2)c(C(O)c2ccc(Cl)cc2)c1Cl` (centres unmarked) is 3.78%. The figure for `Cc1cc(C)cc(NC(=O)C2CCCN2S(=O)(=O)c2ccc3c(c2)n(C)c(=O)c(=O)n3C)c1` (centres unmarked) is 4.5%; for `COc1cccc(OC)c1C(=O)Nc1ccc2c(c1)N(S(=O)(=O)c1cccs1)CCC2` it is 16.7%. `CN1CCN(S(=O)(=O)c2cccc(C(=O)Oc3ccc(C(C)(C)C)cc3)c2)CC1`: the “hERG current change (%, negative = inhibition) at 1uM” value was determined as 37.2%. The figure for `CCOC(=O)N/N=C1\CC(C)S(=O)(=O)c2ccc(Cl)cc21` (centres unmarked) is 9.57%; for `CCCN(CCC)C(=O)c1cc2c(=O)n3cccc(C)c3nc2s1` it is 19.8%; for `CCCc1ccc(NC(=O)C2CCN(c3cnccn3)CC2)cc1` it is 4.51%. For `O=C(CCCc1nc2ccccc2s1)NC1CCOC1=O` (centres unmarked), the “hERG current change (%, negative = inhibition) at 1uM” value stood at 6.48%. On to `N#C/C(=C/c1ccc(N2CCCCCC2)o1)c1cccc(F)c1`, for which the “hERG current change (%, negative = inhibition) at 1uM” value was determined as 8.95%.

Turning to `C=CCN1C(=O)NC(=O)/C(=C/c2ccc(OC)c(CSc3ccccn3)c2)C1=O`, the “hERG current change (%, negative = inhibition) at 1uM” value is reported as 9.78%. In the case of `COc1ccc(NC(=O)c2cc(C)no2)cc1OC`, the “hERG current change (%, negative = inhibition) at 1uM” value is reported as 7.43%.

Turning to `O=C(N/C(=C\c1ccc(F)cc1)C(=O)N1CCOCC1)c1ccccc1`, the “hERG current change (%, negative = inhibition) at 1uM” value was -6.04%.

For the compound `O=C1NCCN1c1ccc(CN2CCN(C3CCCCC3)C(CCO)C2)cc1` (centres unmarked), the “hERG current change (%, negative = inhibition) at 1uM” value was determined as 3.87%.

Consider `Cc1cc(C)n(-c2ccc(C(=O)OCC(=O)NCc3ccc(Cl)cc3)cc2)n1`, for which the “hERG current change (%, negative = inhibition) at 1uM” value stood at 0.232%. The figure for `O=C(O)CCc1ccc(-c2ccccc2)n1-c1cccc(C(=O)O)c1` is 15.2%; for `Cc1[nH]c2ccccc2c1C(=O)CN1CCC(C(N)=O)(N2CCCCC2)CC1` it is 15.4%.

`COc1ccc(S(=O)(=O)Nc2cccc(F)c2)cc1C`: the “hERG current change (%, negative = inhibition) at 1uM” value is recorded as 12.3%. The figure for `CCn1cc(C(=O)NCCc2ccccc2)c(=O)c2cc(S(=O)(=O)N(C)C)ccc21` is 2.83%; for `CN(C)c1ccc(C2(c3ccc(N(C)C)cc3)OC(=O)c3cc(N)ccc32)cc1` it is 14.6%. Take `Cc1ccc(N2CC(C(=O)Nc3ccc(S(=O)(=O)N4CCOCC4)cc3)CC2=O)cc1Cl` (centres unmarked): the “hERG current change (%, negative = inhibition) at 1uM” value amounted to 7.84%. Take `CSc1cccc(CN2CCN(CCc3ccccc3)C(CCO)C2)c1` (centres unmarked): the “hERG current change (%, negative = inhibition) at 1uM” value is reported as -45.3%. The figure for `Cc1nn(CC(=O)N2CCN(Cc3ccccc3)CC2)c(=O)c2ccccc12` is 6.6%. The figure for `CC(=O)c1ccc(C(=O)Nc2ccc(N3CCOCC3)cc2)cc1` is 13.6%; for `O=Cc1cn(Cc2ccccc2F)c2ccccc12` it is 15%; for `CC1CCN(C(=O)CSc2nnc(-c3ccco3)o2)CC1` it is -7.81%.

In the case of `Cc1nc2ccccc2c(=O)n1NCc1cc(Br)cs1`, the “hERG current change (%, negative = inhibition) at 1uM” value is listed as -2.72%.

In the case of `O=C(CSc1nnc(Cc2cccs2)n1-c1ccc(Cl)cc1)NCc1ccc2c(c1)OCO2`, the “hERG current change (%, negative = inhibition) at 1uM” value was -5.23%. The figure for `COc1ccc(COC(=O)c2ccc(S(=O)(=O)N3CCC(C)CC3)cc2)cc1` is 11.8%. On to `CC(C)(C)N1C(=O)[C@H]2[C@@H](c3ccc(Br)cc3)N3C(=O)N(c4cccc(Cl)c4)C(=O)[C@@]3(C)[C@H]2C1=O`, for which the “hERG current change (%, negative = inhibition) at 1uM” value was found to be 11.2%.

Consider `CCN(CC)CCCn1c(=S)[nH]c2ncccc2c1=O`, for which the “hERG current change (%, negative = inhibition) at 1uM” value is listed as 4.46%.

In the case of `Cc1ccc(C)c(SCC(=O)Nc2ccc(S(=O)(=O)Nc3ncccn3)cc2)c1`, the “hERG current change (%, negative = inhibition) at 1uM” value is 12.7%. The figure for `O=C(CSc1nc(-c2ccc(F)cc2)nc2ccc(F)cc12)Nc1cccc(C(=O)O)c1` is 19.8%; for `CC(C)C(=O)N1CCN(c2nc(-c3ccc(Cl)cc3)cs2)CC1` it is -69.6%; for `CNC(=O)NC(=O)C(OC(=O)CCNS(=O)(=O)c1ccccc1)c1ccccc1` (centres unmarked) it is 8.02%.
